The structures appear in SMILES notation. The source holds more than one record for some entries. Only these are listed. The source may hold further records. The records of an entry repeat one measurement (runs, samples, wells, individuals or studies). A tag in brackets gives the origin of a value. The letters are not those of the source and start again with each entry.

For the test, the system named is CEM cells HIV-1 protection, formazan growth assay. The test is described as follows: NCI AIDS Antiviral Assay. The following applies: measured here: growth of uninfected CEM cells. A digest of the protocol:
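Protection of CEM cells against HIV-1 was scored from cell growth (soluble formazan) across five concentrations, with parallel uninfected cells. Lack of protection may reflect toxicity.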
Regarding `O=C(CCCN1CCC(O)(c2ccc(Cl)cc2)CC1)c1ccc(F)cc1`, the IC50 is 46.8 µM [sample A] and 3.02 µM [sample B].

`CN(C)c1ccc(/C=C(\C#N)c2ccccc2)cc1`: the IC50 is 468 nM, 447 nM, 1.7 µM, 708 nM [separate samples]. The value for `COC(=O)C1C(O)C(C)C(O)C(C)C=C(C)C2=C3C(=C(C)C(=O)c4c(O)c(c(C)c(OC(C)=O)c43)NC(=O)C(C)=C/C=C\C(C)C(O)C(C)C1O)OCO2` (stereo not drawn) was 3.98 µM [sample A] and 67.6 µM [sample B].

The record behind these values is PubChem BioAssay AID179 (DTP/NCI, 2004).
